# According to PubChem BioAssay (Tox21):
# Several values for one entry are separate records, joined by “and”; a condition that tells them apart may be missing. Identical values can stand only once. This list was built around the results that the source calls inconclusive (neither active nor inactive); the mix of calls is not that of the screen. A potency beside an inconclusive call is a rough fit, not a confirmed value. Activity calls are given as the source filed them. Unless noted, calls follow the shape of the dose curve; as a rule, active = well fitted curve in the direction sought with a large enough effect in the repeat runs; inconclusive = weak or mixed curves; inactive = no such curve, though single readings can be large; an effect the other way counts as inactive or inconclusive.
# Experiments:
# [1] = qHTS assay to identify small molecule agonists of the endoplasmic reticulum stress response signaling pathway - cell viability counter screen (AID 1159517; calls by dose curve; also: nearly all actives have a fitted effect of over 50% in size)
# How it was run: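 ESRE-bla HeLa cells (1,500/well) were plated overnight at 37 C and exposed to compounds for 5 hr. After the 2 hr beta-lactamase substrate read, CellTiter-Glo went into the same wells, and luminescence was read after 30 min at room temperature.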
# [2] = biological target: Retinoic acid receptor RXR-alpha (Homo sapiens) (UniProt P19793); assay: qHTS assay to identify small molecule agonists of the RXR signaling pathway (AID 1159527; calls by dose curve; also: nearly all actives have a fitted effect of over 35% in size; as to activation: % is scaled to controls: 0 for no effect and ±100 for the full control effect); conditions: HEK293T RXRa-UAS-bla, beta-lactamase ratio, 16 h; activation: at 76.8 µM (top of the series) unless noted
# Chain of UniProt P19793 (P19793 whole entry, looked up): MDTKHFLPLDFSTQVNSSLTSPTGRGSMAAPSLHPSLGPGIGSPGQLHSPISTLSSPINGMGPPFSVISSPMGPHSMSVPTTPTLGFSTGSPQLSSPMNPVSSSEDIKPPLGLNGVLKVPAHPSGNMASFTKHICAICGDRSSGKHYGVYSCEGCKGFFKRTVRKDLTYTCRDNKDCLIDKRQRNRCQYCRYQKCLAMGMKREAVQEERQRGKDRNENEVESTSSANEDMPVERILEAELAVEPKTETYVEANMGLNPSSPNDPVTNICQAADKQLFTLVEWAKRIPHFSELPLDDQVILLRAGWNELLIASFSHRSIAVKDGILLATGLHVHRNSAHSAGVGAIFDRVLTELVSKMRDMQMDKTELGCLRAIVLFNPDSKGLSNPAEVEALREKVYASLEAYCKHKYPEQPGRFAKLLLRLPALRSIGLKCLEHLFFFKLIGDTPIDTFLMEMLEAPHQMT
# How it was run: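 qHTS of the Tox21 10K library in GeneBLAzer RXR-alpha HEK 293T cells carrying a beta-lactamase reporter […]; 16 hr treatment, 9-cis retinoic acid as agonist control, FRET read-out.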
# [3] = qHTS assay to identify small molecule agonists of the retinoic acid receptor (RAR) signaling pathway (AID 1159553); conditions: C3RL4 RARE luciferase reporter, agonist, 6 h; activation: at 73.3 µM (top of the series) unless noted; as to activation: % is scaled to controls: 0 for no effect and ±100 for the full control effect
# How it was run: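 Quantitative high-throughput format: the Tox21 10K library was tested on C3RL4 RARE-luciferase cells for 6 hr at 37 C and 5% CO2, with luminescence measured after a 30 min room-temperature reagent step.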
# [4] = qHTS assay to identify small molecule antagonists of the retinoid acid receptor (RAR) signaling pathway - cell viability counter screen (AID 1159551); also: nearly all actives have a fitted effect of over 35% in size
# How it was run: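 ATP-based viability, C3RL4 cells, 6 h at 37 C with 1 uM final retinol co-added after compound; luminescence read 30 min post CellTiter-Glo, RT.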
# [5] = qHTS assay to identify small molecule antagonists of the retinoid-related orphan receptor gamma (ROR-gamma) signaling pathway - cell viability counter screen (AID 1159520); also: nearly all actives have a fitted effect of over 50% in size
# How it was run: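 Cytotoxicity was read from cellular ATP (CellTiter-Glo luminescence) after 16 hr at 37 C with 1 uM doxycycline induction. The inducer was added 2 hr after compound transfer to Tet-on ROR gamma CHO cells.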
# [6] = qHTS assay to identify small molecule antagonists of the retinoic acid receptor (RAR) signaling pathway (AID 1159552; also: nearly all actives have a fitted effect of over 50% in size)
# How it was run: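 Quantitative HTS in C3RL4 RARE-luciferase reporter cells. Compounds were added with 1 uM (final) retinol; luminescence was read after 6 hr.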
# [7] = qHTS assay to identify small molecule agonists of the RXR signaling pathway - cell viability counter screen (AID 1159529); also: nearly all actives have a fitted effect of over 50% in size
# How it was run: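 Cell viability is measured by CellTiter-Glo luminescence, 30 min at room temperature, in wells already read for beta-lactamase. Engineered HEK 293T cells (RXR-alpha-UAS-bla) are dosed 16 hr at 37 C. Tetraoctyl ammonium bromide serves as positive control.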
# [8] = biological target: Nuclear receptor ROR-gamma (Homo sapiens) (UniProt P51449); assay: qHTS assay to identify small molecule antagonists of the retinoid-related orphan receptor gamma (ROR-gamma) signaling pathway (AID 1159521; also: nearly all actives have a fitted effect of over 50% in size)
# How it was run: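 RORγ antagonism is scored from reduced reporter luminescence in Tet-on CHO cells. Induction used 1 uM final doxycycline hyclate for 16 h at 37 C, following a 2 h compound exposure.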
# [9] = qHTS assay to identify small molecule agonists of the AP-1 signaling pathway (AID 1159526; calls by dose curve; as to activation: % is scaled to controls: 0 for no effect and ±100 for the full control effect); conditions: ME-180 (cervical carcinoma) AP-1-bla reporter, beta-lactamase FRET ratio, 5 h
# [10] = qHTS assay to identify small molecule agonists of the AP-1 signaling pathway - cell viability counter screen (AID 1159525; calls by dose curve; also: nearly all actives have a fitted effect of over 55% in size)
# How it was run: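 Intracellular ATP by Cell Titer Glo luminescence (30 min, RT) in the same ME-180 AP-1-bla wells after the 5 h compound exposure at 37 °C. Normalised to tetra n-octyl ammonium bromide and DMSO controls.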
# [11] = activation: at 76.8 µM (top of the series) unless noted
# Potency is read from the fitted curve at half-maximal effect; tags tell the direction and shape of the fitted curve or compound fluorescence and quenching.
smiles,measurement,setting,value
C[C@H]1C(=O)O[C@@H]2CCN3CC=C(COC(=O)[C@](C)(O)[C@]1(C)O)[C@H]23,Potency,[1],"inconclusive: 69.5 nM [cytotoxic, full curve, poor fit] and inconclusive: 1.23 µM [cytotoxic, single point] and inactive"
same,Potency,[2],inactive
same,activation,[3],inconclusive: -1.54% [phenotype inactive] [at 94.8 µM]
O=C(O)c1ccccn1,Potency,[1],"inconclusive: 10.7 µM [rising, partial curve, poor fit]"
same,Potency,[4],inactive
O=[N+]([O-])c1ccc(CCl)cc1,Potency,[1],"inconclusive: 24.1 µM [rising, single point]"
same,activation,[2],inconclusive: -5.26%
same,Potency,[3],inactive
CON(C)C(=O)Nc1ccc(Cl)c(Cl)c1,Potency,[1],"inconclusive: 0.875 µM [cytotoxic, single point]"
same,Potency,[3],"inconclusive: 13.7 µM [activator, full curve] and active: 24.3 µM"
C=CCC1(C(C)CC)C(=O)NC(=O)NC1=O (stereo not given),Potency,[5],inactive
O=[N+]([O-])c1ccccc1O,Potency,[1],inactive
same,Potency,[2],inactive
same,Potency,[3],inactive
COc1ccc2c3c1O[C@H]1[C@H](O)CC[C@H]4[C@@H](C2)N(C)CC[C@@]341,Potency,[1],"inconclusive: 4.82 µM [cytotoxic, single point]"
same,activation,[3],inconclusive: -0.844% [phenotype inactive]
O=C(O)c1cccc(Cl)c1,Potency,[1],inactive
same,Potency,[6],inactive
CC(C)(C)N(NC(=O)c1ccc(Cl)cc1)C(=O)c1ccccc1,Potency,[5],inactive
CCOC(=O)Cc1ccccc1,Potency,[1],"inconclusive: 61.6 µM [rising, single point]"
same,Potency,[3],"inconclusive: 0.0015 µM [activator, full curve, poor fit]"
C/C=C/c1ccc2c(c1)OCO2,Potency,[5],inactive
CCCCCON=O,Potency,[1],"inconclusive: 4.91 µM [cytotoxic, full curve, poor fit]"
same,Potency,[6],"inconclusive: 0.613 µM [inhibitor, single point]"
CC(C)NC(C)C,Potency,[1],inactive
same,activation,[3],inconclusive: -0.042% [phenotype inactive]
CN(C)CCc1c[nH]c2cccc(OP(=O)(O)O)c12,Potency,[1],inactive
same,Potency,[3],inactive
Cn1c(N)nc2c3cccnc3ccc21,Potency,[1],inactive
same,Potency,[3],"inconclusive: 58.1 µM [activator, partial curve, poor fit]"
Cl/C=C\Cl,Potency,[1],"inconclusive: 5.17 µM [rising, partial curve, poor fit]"
same,Potency,[4],"inconclusive: 20.4 µM [rising, partial curve, poor fit]"
O=C(NC(=O)c1c(F)cccc1F)Nc1ccc(Cl)cc1,Potency,[1],inactive
same,Potency,[2],inactive
same,Potency,[3],"inconclusive: 1.54 µM [activator, full curve] and inconclusive: 864 nM [activator, full curve, poor fit]"
C=CCO,Potency,[5],inactive
C1CCC(NC2CCCCC2)CC1,Potency,[1],"inconclusive: 21.9 µM [rising, partial curve, poor fit]"
same,Potency,[7],inactive
O=C(O)CC(Cl)C(=O)O (stereo not given),Potency,[1],"inconclusive: 22.1 µM [rising, single point]"
same,activation,[3],inconclusive: 3.07% [phenotype inactive] [at 94.8 µM]
CCCC[n+]1ccccc1,Potency,[5],"inconclusive: 31 µM [cytotoxic, partial curve, poor fit]"
C#C[C@]1(O)CC[C@H]2[C@@H]3CCC4=CC(=O)CCC4=C3C=C[C@@]21CC,Potency,[1],inactive
same,Potency,[2],inactive
same,Potency,[3],"inconclusive: 0.0017 µM [activator, full curve, poor fit]"
Clc1cc(C(Cl)(Cl)Cl)cnc1Cl,Potency,[1],active: 11 µM
same,activation,[3],inconclusive: 2.85% [phenotype inactive]
CCN(CC)C(=O)Cl,Potency,[5],"inconclusive: 77 µM [rising, partial curve, poor fit]"
Cl/C=C\C[N+]12CN3CN(CN(C3)C1)C2,Potency,[5],inconclusive: 68.6 µM [cytotoxic]
CC(C)CC(C)N (stereo not given),Potency,[1],"inconclusive: 21.4 µM [rising, single point]"
same,Potency,[4],inactive
COC1CC(=C(c2cccs2)c2cccs2)C[N+](C)(C)C1 (stereo not given),Potency,[1],inactive
same,Potency,[7],"inconclusive: 10.7 µM [cytotoxic, partial curve, poor fit]"
Oc1ccccc1Cl,Potency,[5],inactive
COc1ccc(Cc2nccc3cc(OC)c(OC)cc23)cc1OC,Potency,[5],"inconclusive: 6.68 µM [cytotoxic, partial curve, poor fit]"
CC(Cl)C(C)Cl (stereo not given),Potency,[1],"inconclusive: 0.342 µM [cytotoxic, single point]"
same,Potency,[3],"inconclusive: 75.9 µM [inhibitor, single point]"
C=CCc1cc(OC)c2c(c1)OCO2,Potency,[5],inactive
Oc1ccc(Cl)c(Cl)c1Cl,Potency,[5],"inconclusive: 44.9 µM [cytotoxic, partial curve, poor fit]"
same,Potency,[8],active: 50.3 µM
O=C(NC(=O)c1c(F)cccc1F)Nc1cc(Cl)c(Oc2ncc(C(F)(F)F)cc2Cl)c(Cl)c1,Potency,[5],"inconclusive: 20.8 µM [cytotoxic, partial curve, poor fit]"
same,Potency,[8],active: 20.8 µM
same,activation,[9]; [11],inconclusive: 13.3%
same,Potency,[2],"inconclusive: 3.73 µM [rising, full curve]"
same,Potency,[3],"inconclusive: 29.3 µM [inhibitor, partial curve, poor fit]"
CCCCN(CCCC)C(=S)S,Potency,[5],inactive
same,Potency,[8],"inconclusive: 77 µM [inhibitor, single point]"
same,activation,[9]; [11],inconclusive: 29.1%
same,Potency,[2],inactive
ClP(Cl)(Cl)(Cl)Cl,Potency,[5],"inconclusive: 69.1 µM [cytotoxic, single point]"
same,Potency,[8],inconclusive: 69.1 µM [inhibitor]
same,Potency,[9]; [11],inactive
CSc1ccc(C(=O)C(C)(C)N2CCOCC2)cc1,Potency,[5],inactive
same,Potency,[8],"inconclusive: 61.1 µM [inhibitor, partial curve, poor fit]"
CC(C)=CC1C(C(=O)OCN2C(=O)C3=C(CCCC3)C2=O)C1(C)C (stereo not given),Potency,[5],"inconclusive: 27.3 µM [cytotoxic, partial curve, poor fit]"
same,Potency,[8],"inconclusive: 77 µM [inhibitor, single point] and inconclusive: 33.5 µM [inhibitor, partial curve, poor fit]"
same,activation,[9]; at 35.3 µM (top of the series),inconclusive: 25.5%
same,activation,[9]; at 76.8 µM (top of the series),inconclusive: 16.4%
same,Potency,[2],"inconclusive: 15.5 µM [activator, full curve] and inconclusive: 4.77 µM [inhibitor]"
same,Potency,[7],"inconclusive: 24.5 µM [cytotoxic, partial curve] and inconclusive: 12 µM [cytotoxic, partial curve]"
CNC(=O)Oc1cc(C)c(SC)c(C)c1,Potency,[5],"inconclusive: 30.6 µM [cytotoxic, partial curve, poor fit]"
same,Potency,[8],"inconclusive: 24.3 µM [inhibitor, partial curve]"
CCCC(Cn1cncn1)c1ccc(Cl)cc1Cl (stereo not given),Potency,[5],"inconclusive: 54.5 µM [cytotoxic, partial curve, poor fit]"
same,Potency,[8],"inconclusive: 38.6 µM [inhibitor, partial curve]"
same,Potency,[9]; [11],inconclusive: 43.6 µM
same,Potency,[2],"inconclusive: 43.6 µM [inhibitor, partial curve, poor fit]"
same,Potency,[7],"inconclusive: 54.9 µM [cytotoxic, single point]"
same,Potency,[6],"inconclusive: 68.6 µM [inhibitor, single point]"
same,Potency,[3],inactive
CC(C)(C)C(O)/C(=C\c1ccc(Cl)cc1Cl)n1cncn1 (stereo not given),Potency,[5],inconclusive: 74 µM [cytotoxic]
same,Potency,[8],active: 41.6 µM
same,Potency,[10],"inconclusive: 33.3 µM [cytotoxic, partial curve]"
same,Potency,[9]; [11],"inconclusive: 52.8 µM [falling, partial curve]"
same,activation,[2],inconclusive: -27.4%
same,Potency,[7],"inconclusive: 66.5 µM [cytotoxic, single point]"
same,Potency,[4],"inconclusive: 74 µM [cytotoxic, partial curve]"
N#CC(CCc1ccc(Cl)cc1)(Cn1cncn1)c1ccccc1 (stereo not given),Potency,[5],active: 54.5 µM
same,Potency,[8],active: 27.3 µM
same,Potency,[9]; [11],"inconclusive: 54.9 µM [falling, single point]"
same,Potency,[2],"inconclusive: 4.36 µM [rising, full curve, poor fit]"
same,Potency,[4],inconclusive: 68.6 µM [cytotoxic]
same,Potency,[6],active: 61.1 µM
CS/C(C)=N/OC(=O)N(C)SN(C)C(=O)O/N=C(\C)SC,Potency,[5],active: 43.3 µM
same,Potency,[8],active: 38.6 µM
same,Potency,[9]; [11],"inconclusive: 34.7 µM [activator, partial curve, poor fit]"
same,Potency,[2],inconclusive: 21.9 µM
same,Potency,[7],active: 49 µM
same,Potency,[4],inconclusive: 54.5 µM [cytotoxic]
same,Potency,[6],"inconclusive: 68.6 µM [inhibitor, single point]"
same,Potency,[3],"inconclusive: 68.6 µM [inhibitor, single point]"
OC(Cc1ccccc1Cl)(Cn1[nH]cnc1=S)C1(Cl)CC1 (stereo not given),Potency,[5],"inconclusive: 54.5 µM [cytotoxic, partial curve, poor fit]"
same,Potency,[8],"inconclusive: 54.5 µM [inhibitor, partial curve]"
same,Potency,[9]; [11],inconclusive: 24.5 µM [partial curve]
same,activation,[2],inconclusive: -19.2%
same,Potency,[7],"inconclusive: 13.8 µM [cytotoxic, partial curve, poor fit]"
CCC(OC(C)=O)C(CC(C)NC)(c1ccccc1)c1ccccc1 (stereo not given),Potency,[5],inconclusive: 77.6 µM [cytotoxic]
same,Potency,[8],"inconclusive: 34.7 µM [inhibitor, partial curve]"
same,Potency,[9]; [11],"inconclusive: 31.2 µM [activator, partial curve]"
same,Potency,[2],"inconclusive: 62.2 µM [partial curve, poor fit]"
same,Potency,[7],inconclusive: 62.2 µM [cytotoxic]
same,Potency,[3],"inconclusive: 34.7 µM [inhibitor, partial curve]"
